{"source": "PubChem BioAssay AID2060602", "about": "(Molecular Pharmacology Branch, DTP, NCI, 2025)", "test_system": "648629-189-R-J1-PDC complex spheroids viability", "assay": "Anticancer human tumor 648629-189-R-J1-PDC patient-derived bladder carcinoma cell line growth inhibition [CLK]", "settings": "compound alone 0.316 µM; stronger effect = lower value", "text": "A high-throughput screen of multi-cell type tumor spheroids was designed to identify active combinations of […] and targeted small molecules. Complex spheroids include a stromal component modeled by human endothelial cells (HUVEC) and fibroblasts modeled by human mesenchymal stem cells (MSCs). The concentration ranges selected for each drug and investigational agent were based upon clinically achievable concentrations if the clinical Cmax of the agent was known.\nCompounds. The drugs and investigational agents: cirtuvivint (SM08502; NSC835563), CC-671 (NSC850746), vemurafenib (NSC761431), tapotoclax (NSC804041), sotorasib (NSC818433), adagrasib (NSC831453), MRTX-1133 (NSC836407), BAY2416964 (NSC825713), copanlisib (NSC816437), inavolisib (NSC800729), abemaciclib (NSC768073), osimertinib (NSC779217), entinostat (NSC756642), eltanexor (KPT-8602, NSC794443), venetoclax (NSC766270), ceralasertib (NSC777638), bortezomib (NSC756655), olaparib (NSC753686), talazoparib (NSC767125), alisertib (NSC759677), peposertib (NSC802822), gemcitabine (NSC613327), 5-fluorouracil (NSC19893), SN-38 (NSC673596), oxaliplatin (NSC266046), paclitaxel (NSC125973), and doxorubicin (NSC123127), were obtained from the National Cancer Institute (NCI) Developmental Therapeutics Program Chemical Repository. […] If the clinical Cmax for an agent had not been determined, the highest concentration tested was 10 microM. […]", "note": "A number of entries come with more than one value. This list holds those alone. The source may hold further records. The values listed for one entry are repeats in other runs, samples, wells, individuals or studies.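 Also: drug exposure lasted seven days before viability readout; 100% = DMSO vehicle control wells.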"}
{"compound": "CN1CCN(c2cc(C(=O)Nc3cc4cc(-c5cnn(C)c5)ccc4cn3)ccn2)CC1", "values": [{"measurement": "viability, T/C", "value": "38.4, 23.4, 28.4, 44.1, 45.8, 42.1, 51.9, 44.4, 37.2, 49.6, 48.6, 47.1%"}]}
